Data: patent US10299477B2 (priority 2015, dated 2019)

What was measured:
Format in all cases: in vivo
Plasmopara viticola = assay: Test Example G: Downy mildew on vine; settings: downy mildew on vine, Plasmopara viticola; 250 ppm spray, 7-10 days after inoculation
Description: [Test Example G] Downy Mildew on Vine
Seeds of a test plant (grape variety: Neomuscat) were planted followed by cultivating until three to four first leaves appeared. […] After the sprayed dilutions were dried, a zoosporangia suspension (1-2×10^4 zoosporangia/ml) of Plasmopara viticola was inoculated to the plants by spraying.

Alternaia brassicicola = assay: Test Example C: Alternaria sooty spot on cabbage; settings: Alternaria sooty spot on cabbage; 250 ppm spray
Description: [Test Example C] Alternaria Sooty Spot on Cabbage
Seeds of a test plant (cabbage variety: Shikidori) were planted followed by cultivating until the cotyledons extended.

Puccinia recondita = assay: Test Example E: Brown rust on wheat; settings: brown rust on wheat, Puccinia recondita; 250 ppm spray
Description: [Test Example E] Brown Rust on Wheat

Botrytis cinerea = assay: Test Example B: Gray mold on tomato; settings: gray mold on tomato, Botrytis cinerea; 250 ppm spray
Description: [Test Example B] Gray Mold on Tomato
Seeds of a test plant (tomato variety: Oogata Fukuju) were planted followed by cultivating until three to five first leaves (true leaves) appeared.

[1] = tested on: Blumeria graminis f sp. hordei; assay: Test Example D: Powdery mildew on barley; settings: powdery mildew on barley; 250 ppm spray
Description: [Test Example D] Powdery Mildew on Barley
After the sprayed dilutions were dried, conidia of Blumeria graminis f sp. hordei were inoculated to the plants by shaking off.

Row | Structure (SMILES) | Test G (control value class) (Plasmopara viticola) | Test C (control value class) (Alternaia brassicicola) | Test E (control value class) (Puccinia recondita) | Test B (control value class) (Botrytis cinerea) | Test D (control value class) [1]
1 | CCN1C(=O)CCC(c2cc(F)cc(F)c2F)=C1c1c(F)cccc1F [Compound 436] | L (L shows 50% or less of control values) | L (L shows 50% or less of control values) | H (H shows more than 50% of control values) | H (H shows more than 50% of control values) | H (H shows more than 50% of control values)
2 | CN1C(=O)CCC(c2cc(F)cc(F)c2F)=C1c1c(F)cccc1F [Compound 437] | L (L shows 50% or less of control values) | L (L shows 50% or less of control values) | H (H shows more than 50% of control values) | H (H shows more than 50% of control values) | H (H shows more than 50% of control values)
3 | Cn1c(-c2c(F)cccc2F)c(-c2cc(F)cc(F)c2F)ccc1=O [Compound 439] | L (L shows 50% or less of control values) | H (H shows more than 50% of control values) | H (H shows more than 50% of control values) | H (H shows more than 50% of control values) | H (H shows more than 50% of control values)
4 | CCn1c(-c2c(F)cccc2F)c(-c2cc(F)cc(F)c2F)cc(Br)c1=O [Compound 441] | L (L shows 50% or less of control values) | H (H shows more than 50% of control values) | H (H shows more than 50% of control values) | H (H shows more than 50% of control values) | H (H shows more than 50% of control values)
5 | Cn1c(-c2c(F)cccc2F)c(-c2cc(F)cc(F)c2F)cc(Cl)c1=O [Compound 442] | L (L shows 50% or less of control values) | H (H shows more than 50% of control values) | H (H shows more than 50% of control values) | H (H shows more than 50% of control values) | L (L shows 50% or less of control values)
6 | Cn1c(-c2c(F)cccc2F)c(-c2cc(F)cc(F)c2F)cc(Br)c1=O [Compound 443] | L (L shows 50% or less of control values) | H (H shows more than 50% of control values) | H (H shows more than 50% of control values) | H (H shows more than 50% of control values) | L (L shows 50% or less of control values)
7 | CCn1c(-c2c(F)cccc2F)c(-c2cc(Cl)ccc2Cl)ccc1=O [Compound 444] | L (L shows 50% or less of control values) | H (H shows more than 50% of control values) | H (H shows more than 50% of control values) | H (H shows more than 50% of control values) | H (H shows more than 50% of control values)
8 | Cn1c(-c2c(F)cccc2F)c(-c2cc(Cl)ccc2Cl)cc(Cl)c1=O [Compound 447] | L (L shows 50% or less of control values) | H (H shows more than 50% of control values) | H (H shows more than 50% of control values) | H (H shows more than 50% of control values) | H (H shows more than 50% of control values)
9 | O=c1ccc(-c2cc(Cl)ccc2Cl)c(-c2c(F)cccc2F)n1CC(F)F [Compound 448] | L (L shows 50% or less of control values) | L (L shows 50% or less of control values) | L (L shows 50% or less of control values) | H (H shows more than 50% of control values) | H (H shows more than 50% of control values)
10 | CCn1c(-c2c(F)cccc2F)c(-c2cc(Cl)cc(Cl)c2Cl)cc(Cl)c1=O [Compound 451] | L (L shows 50% or less of control values) | H (H shows more than 50% of control values) | H (H shows more than 50% of control values) | H (H shows more than 50% of control values) | H (H shows more than 50% of control values)
11 | Cn1c(-c2c(F)cccc2F)c(-c2cc(Cl)cc(Cl)c2Cl)ccc1=O [Compound 452] | L (L shows 50% or less of control values) | H (H shows more than 50% of control values) | H (H shows more than 50% of control values) | H (H shows more than 50% of control values) | H (H shows more than 50% of control values)
12 | O=c1c(Cl)cc(-c2cc(Cl)cc(Cl)c2Cl)c(-c2c(F)cccc2F)n1CC(F)F [Compound 455] | L (L shows 50% or less of control values) | H (H shows more than 50% of control values) | H (H shows more than 50% of control values) | H (H shows more than 50% of control values) | H (H shows more than 50% of control values)
13 | C#CCN1C(=O)CCC(c2cc(OC)ccc2Cl)=C1c1c(F)cccc1F [Compound 456] | L (L shows 50% or less of control values) | H (H shows more than 50% of control values) | H (H shows more than 50% of control values) | H (H shows more than 50% of control values) | H (H shows more than 50% of control values)
14 | Cc1cc(-c2cc(F)cc(F)c2F)c(-c2c(F)cccc2F)n(C)c1=O [Compound 457] | H (H shows more than 50% of control values) | H (H shows more than 50% of control values) | H (H shows more than 50% of control values) | H (H shows more than 50% of control values) | H (H shows more than 50% of control values)
15 | C#CCn1c(-c2c(F)cccc2F)c(-c2cc(OC)ccc2Cl)ccc1=O [Compound 458] | L (L shows 50% or less of control values) | L (L shows 50% or less of control values) | L (L shows 50% or less of control values) | H (H shows more than 50% of control values) | L (L shows 50% or less of control values)
16 | CCn1c(-c2c(F)cccc2F)c(-c2cc(F)cc(F)c2F)cc(C)c1=O [Compound 459] | L (L shows 50% or less of control values) | H (H shows more than 50% of control values) | H (H shows more than 50% of control values) | H (H shows more than 50% of control values) | H (H shows more than 50% of control values)
17 | C#CCn1c(-c2c(F)cccc2F)c(-c2cc(OC)ccc2Cl)cc(Cl)c1=O [Compound 462] | H (H shows more than 50% of control values) | H (H shows more than 50% of control values) | H (H shows more than 50% of control values) | H (H shows more than 50% of control values) | H (H shows more than 50% of control values)
18 | COc1ccc(Cl)c(-c2cc(Cl)c(=O)n(CC#N)c2-c2c(F)cccc2F)c1 [Compound 463] | H (H shows more than 50% of control values) | H (H shows more than 50% of control values) | H (H shows more than 50% of control values) | H (H shows more than 50% of control values) | H (H shows more than 50% of control values)
19 | CCn1c(-c2c(F)cc(F)cc2F)c(-c2cc(F)cc(F)c2F)cc(Cl)c1=O [Compound 465] | L (L shows 50% or less of control values) | H (H shows more than 50% of control values) | H (H shows more than 50% of control values) | H (H shows more than 50% of control values) | H (H shows more than 50% of control values)
20 | Cn1c(-c2c(F)cc(F)cc2F)c(-c2cc(F)cc(F)c2F)ccc1=O [Compound 466] | L (L shows 50% or less of control values) | H (H shows more than 50% of control values) | H (H shows more than 50% of control values) | H (H shows more than 50% of control values) | H (H shows more than 50% of control values)
21 | CCn1c(-c2c(F)cc(OC)cc2F)c(-c2cc(F)ccc2F)ccc1=O [Compound 468] | H (H shows more than 50% of control values) | H (H shows more than 50% of control values) | H (H shows more than 50% of control values) | H (H shows more than 50% of control values) | H (H shows more than 50% of control values)
